{
  "source": "paper PMC4336329",
  "about": "(PLoS ONE, 2015)",
  "note": "About 14,000 (4.5%) of roughly 310,000 compounds showed an effect of 50% or more. The effect is printed as a negative number. Some of the results follow.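 Further: peak tail current of the secondary pulse compared with the same well before compound.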",
  "data": [
    {"biological_target": "human ether-à-go-go-related gene (hERG) potassium channel (human, UniProt Q12809)", "sequence (Q12809 whole entry, looked up)": "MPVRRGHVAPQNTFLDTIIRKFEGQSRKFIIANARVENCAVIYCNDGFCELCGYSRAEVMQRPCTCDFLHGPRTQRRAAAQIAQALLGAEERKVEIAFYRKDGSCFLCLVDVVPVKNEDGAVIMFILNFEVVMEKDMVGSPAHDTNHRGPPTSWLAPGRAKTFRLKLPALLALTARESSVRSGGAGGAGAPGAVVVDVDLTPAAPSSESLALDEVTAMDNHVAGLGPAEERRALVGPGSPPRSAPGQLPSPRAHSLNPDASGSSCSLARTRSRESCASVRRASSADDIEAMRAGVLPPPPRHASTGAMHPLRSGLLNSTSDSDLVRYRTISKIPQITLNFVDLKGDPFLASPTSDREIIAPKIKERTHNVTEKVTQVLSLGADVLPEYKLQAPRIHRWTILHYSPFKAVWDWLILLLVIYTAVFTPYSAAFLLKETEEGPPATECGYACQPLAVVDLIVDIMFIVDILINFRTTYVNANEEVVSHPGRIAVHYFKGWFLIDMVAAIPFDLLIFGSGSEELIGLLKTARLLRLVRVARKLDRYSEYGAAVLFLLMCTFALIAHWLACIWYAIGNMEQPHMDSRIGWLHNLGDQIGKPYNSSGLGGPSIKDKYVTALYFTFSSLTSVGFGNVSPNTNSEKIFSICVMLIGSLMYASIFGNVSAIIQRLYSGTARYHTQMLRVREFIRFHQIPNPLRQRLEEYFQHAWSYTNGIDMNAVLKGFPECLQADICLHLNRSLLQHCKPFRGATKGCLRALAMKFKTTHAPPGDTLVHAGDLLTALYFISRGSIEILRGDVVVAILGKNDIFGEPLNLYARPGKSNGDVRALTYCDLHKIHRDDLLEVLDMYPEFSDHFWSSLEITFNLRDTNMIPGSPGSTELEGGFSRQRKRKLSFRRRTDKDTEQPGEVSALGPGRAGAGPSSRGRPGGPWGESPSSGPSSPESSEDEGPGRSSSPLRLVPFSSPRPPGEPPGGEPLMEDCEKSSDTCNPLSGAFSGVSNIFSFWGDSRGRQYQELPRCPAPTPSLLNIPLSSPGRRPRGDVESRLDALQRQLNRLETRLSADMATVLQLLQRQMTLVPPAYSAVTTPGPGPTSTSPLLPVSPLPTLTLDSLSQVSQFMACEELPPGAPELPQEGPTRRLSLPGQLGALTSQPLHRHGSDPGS", "experiment": "primary screen, population patch clamp on CHO cells stably expressing hERG", "units": {"hERG current change (%, negative = inhibition) at 10uM": "%"}, "values": [
      {"smiles": "CC(C1CC1)N(Cc1ccccc1)C(=S)Nc1ccccc1Cl", "note": "(stereo not shown)", "hERG current change (%, negative = inhibition) at 10uM": 47.9},
      {"smiles": "COc1cc(C(=O)NCC(=O)NCCN2C(=O)S/C(=C\\c3ccc4c(c3)OCO4)C2=O)cc(OC)c1OC", "hERG current change (%, negative = inhibition) at 10uM": -8.37},
      {"smiles": "Clc1ccc(-c2nc(-c3cnccn3)no2)cc1", "hERG current change (%, negative = inhibition) at 10uM": 8.67},
      {"smiles": "CC(Sc1nc(N2CCCCC2)c2c(c1C#N)CCCC2)C(=O)O", "note": "(stereo not shown)", "hERG current change (%, negative = inhibition) at 10uM": 17.5},
      {"smiles": "N#CC1=C2C=Cc3ccccc3N2CCCC1=O", "hERG current change (%, negative = inhibition) at 10uM": 4.37},
      {"smiles": "CC(C)(C)NC(=O)CC(CC(=O)O)c1ccccc1", "note": "(stereo not shown)", "hERG current change (%, negative = inhibition) at 10uM": 13.9},
      {"smiles": "Cc1nn(C(C)C(=O)N2CCc3ccccc3C2)c(=O)c2cc3occc3n12", "note": "(stereo not shown)", "hERG current change (%, negative = inhibition) at 10uM": -13.3},
      {"smiles": "CCOc1ccc(N=C2NC(=O)S/C2=C\\c2ccc(N(C)C)cc2)cc1", "hERG current change (%, negative = inhibition) at 10uM": -7.87},
      {"smiles": "O=C(NCc1ccccn1)Nc1ccc(F)cc1F", "hERG current change (%, negative = inhibition) at 10uM": 1.51},
      {"smiles": "Cc1nc(NS(=O)(=O)c2ccccc2)sc1NC(=O)Nc1ccc(Cl)cc1", "hERG current change (%, negative = inhibition) at 10uM": 16.9},
      {"smiles": "Cc1ccccc1-n1c(Cn2c(=O)sc3ccccc32)nnc1SCC(=O)N1CCCC1", "hERG current change (%, negative = inhibition) at 10uM": -2.52},
      {"smiles": "CON1C(=O)C(=O)N(OC)C(C)(C)C1(C)C", "hERG current change (%, negative = inhibition) at 10uM": 0.346},
      {"smiles": "CCN1CCN(C(=O)Cn2ncc3c2-c2ccccc2OC3)CC1", "hERG current change (%, negative = inhibition) at 10uM": -10.1},
      {"smiles": "CCOC(=O)/C(C(=O)Nc1ccc(Cl)cc1Cl)=C1/NC(C)(C)Cc2ccccc21", "hERG current change (%, negative = inhibition) at 10uM": 4.48},
      {"smiles": "CCOC(=O)CN1C(=O)N[C@@H](c2ccco2)C(C(=O)OC)=C1C", "hERG current change (%, negative = inhibition) at 10uM": 17.3},
      {"smiles": "COC(=O)[C@@]1(Cc2ccc(OC)cc2)[C@H]2c3cc(C(=O)N(C)C)n(C[C@H](O)CO)c3C[C@H]2CN1C(=O)c1ccccc1", "hERG current change (%, negative = inhibition) at 10uM": 22.5},
      {"smiles": "COc1ccc(C(=O)CSc2nnc(CNC(=O)c3ccccc3)o2)cc1", "hERG current change (%, negative = inhibition) at 10uM": -12.9},
      {"smiles": "CCS(=O)(=O)Nc1cc2c3c(c1)CCN3C(=O)CC2", "hERG current change (%, negative = inhibition) at 10uM": 22.9},
      {"smiles": "COc1ccc(OCc2nnc(SCC(=O)N3CCCC3)o2)cc1", "hERG current change (%, negative = inhibition) at 10uM": 8.77},
      {"smiles": "COC(=O)COC(=O)CC(CC(N)=O)c1ccccc1", "note": "(stereo not shown)", "hERG current change (%, negative = inhibition) at 10uM": 15.5},
      {"smiles": "O=C(/C=C/c1cccs1)N1CCC2(CC1)Oc1ccc(Cl)cc1C(=O)C21CC(c2cccnc2)=NO1", "note": "(stereo not shown)", "hERG current change (%, negative = inhibition) at 10uM": 8.6},
      {"smiles": "O=C(CCCCCCCCN1C(=O)c2ccccc2C1=O)N1CCOCC1", "hERG current change (%, negative = inhibition) at 10uM": 10},
      {"smiles": "CCOc1c(S(=O)(=O)NC2CC(C)(C)NC(C)(C)C2)ccc(Cl)c1Cl", "hERG current change (%, negative = inhibition) at 10uM": 2.46},
      {"smiles": "O=C(C1c2ccccc2C(=O)N2CCc3ccccc3C12)N1CCC2(CC1)OCCO2", "note": "(stereo not shown)", "hERG current change (%, negative = inhibition) at 10uM": 4.88},
      {"smiles": "Cc1ccc(C(=O)COC(=O)Cc2ccccc2)cc1", "hERG current change (%, negative = inhibition) at 10uM": 22.6},
      {"smiles": "Cc1ccc(OCC(=O)c2ccc3c(c2)CCCC3)cc1C", "hERG current change (%, negative = inhibition) at 10uM": 4.7},
      {"smiles": "O=C(Nc1ccc(F)cc1)c1cccnn1", "hERG current change (%, negative = inhibition) at 10uM": -20},
      {"smiles": "O=C(N/N=C/c1cc(Br)ccc1O)c1ccccc1Cl", "hERG current change (%, negative = inhibition) at 10uM": 10.3},
      {"smiles": "Nc1nnc(-c2ccco2)s1", "hERG current change (%, negative = inhibition) at 10uM": 10.6},
      {"smiles": "COc1ccc(C)cc1NC(=O)c1ccc2c(c1)C(=O)N(Cc1ccncc1)C2=O", "hERG current change (%, negative = inhibition) at 10uM": -15.7},
      {"smiles": "CCCCCc1nc(N)c(C#N)c(-c2ccco2)c1CCCC", "hERG current change (%, negative = inhibition) at 10uM": 12},
      {"smiles": "O=C(CN1C(=O)S/C(=C\\c2ccccn2)C1=O)Nc1ccc(F)cc1", "hERG current change (%, negative = inhibition) at 10uM": 11.3},
      {"smiles": "Cc1nn(CC(=O)Nc2cccc(C(F)(F)F)c2)c(=O)c2cccn12", "hERG current change (%, negative = inhibition) at 10uM": -8.79},
      {"smiles": "O=C(OCC(=O)N1CCOCC1)c1ccc(F)cc1Cl", "hERG current change (%, negative = inhibition) at 10uM": 36.8},
      {"smiles": "O=C(Nc1ccc(Cl)cn1)c1ccc2c(c1)OCCO2", "hERG current change (%, negative = inhibition) at 10uM": -47.3},
      {"smiles": "COc1ccc(-c2cc(-c3c(O)c(OC)c4occc4c3OC)[nH]n2)cc1", "hERG current change (%, negative = inhibition) at 10uM": 6.03},
      {"smiles": "CN(C)c1ccc(C(C[N+](=O)[O-])c2c(N)n(C)c(=O)n(C)c2=O)c(F)c1C#N", "note": "(stereo not shown)", "hERG current change (%, negative = inhibition) at 10uM": -1.17},
      {"smiles": "CCOC(=O)N1CCN(c2cc(=O)n(C)c(=O)n2C)CC1", "hERG current change (%, negative = inhibition) at 10uM": 15.6},
      {"smiles": "Cc1ccnc(NS(=O)(=O)c2cc(C(F)(F)F)ccc2Cl)c1", "hERG current change (%, negative = inhibition) at 10uM": 3.13},
      {"smiles": "O=S(=O)(NC1CCCCCCC1)c1cccs1", "hERG current change (%, negative = inhibition) at 10uM": -34.4},
      {"smiles": "O=C(O)CCCC(=O)OCc1c(-c2ccccc2)ncc2ccccc12", "hERG current change (%, negative = inhibition) at 10uM": 10},
      {"smiles": "Cn1c(N2CCN(c3ccccn3)CC2)nc2c1c(=O)n(Cc1ccc(Cl)cc1)c(=O)n2C", "hERG current change (%, negative = inhibition) at 10uM": -18},
      {"smiles": "CCc1ccc(Nc2n[n+](-c3ccccc3)c(-c3cc(OC)c(OC)cc3Br)s2)cc1.[Cl-]", "hERG current change (%, negative = inhibition) at 10uM": -55},
      {"smiles": "CCOC(=O)N1CCN(Cc2nc3cc(NC(=O)CC(C)C)ccc3n2CC)CC1", "hERG current change (%, negative = inhibition) at 10uM": -8.18},
      {"smiles": "CN1CCCN(C(=O)c2ccccc2Cl)CC1", "hERG current change (%, negative = inhibition) at 10uM": 4.84},
      {"smiles": "COc1nc(-c2ccccc2)ccc1-c1noc(-c2ccco2)n1", "hERG current change (%, negative = inhibition) at 10uM": 6.02}
    ]}
  ]
}
